The results in this text go back to ChEMBL document CHEMBL4888484, “Replenishing the malaria drug discovery pipeline: Screening and hit evaluation of the MMV Hit Generation Library 1 (HGL1) against asexual blood stage Plasmodium falciparum ,using a nano luciferase reporter read-out” (2022).

As usually defined, the % Inhibition is the drop in the measured response relative to a control, in per cent.

About 410 (8.5%) of roughly 4,800 compounds showed an effect of 50% or more. Some of the results follow.

This experiment deals with Plasmodium falciparum. Description: Confirmatory screen in NF54 pLDH assay, in single point, at 2uM, 72h. The format is functional, Erythrocyte. Particulars: timepoint 72 hour.
With `Cc1ccc2c(c1)N(C(=O)c1c[nH]c(C)cc1=O)CCC2`, the “% Inhibition” value is -3%.
As to `O=C(c1ccc(-n2cccn2)cc1)N1CCN(c2ccccc2O)CC1`, the “% Inhibition” value amounted to 11%.
The same measure for `O=C1N[C@H]2C[C@@H](C(=O)NC[C@H]3O[C@H](CCOc4cc(-c5ccccc5)ccc41)CC[C@@H]3O)N(Cc1ccc3c(c1)OCO3)C2`: 12%; for `C[n+]1cc(-c2ccc3ccccc3n2)c(C#N)c2ccccc21`: 6%; for `Nc1nc2ccc(N3CCCC3)cc2s1`: 26%.
The same measure for `Oc1ccc2ncccc2c1[C@@H](Nc1ccccn1)c1cccc(Br)c1`: 77%; for `O=C(c1c[nH]c2ccc(Br)cc12)N1CCC[C@H]1c1ccc2c(c1)OCCO2`: 13%.
The figure for `COCCCn1c(=O)c2ccccc2n(CC(=O)N2CCc3ccccc32)c1=O` is -19%; for `C#CCCCOc1cccnc1N1CCC(OC)CC1` it is -3%.
`COc1cc(OC)c(NC(=O)[C@H]2CCCN(c3nc4ccccc4[nH]c3=O)C2)cc1Cl`: the “% Inhibition” value is reported as 13%.
Consider `NC(=O)NC(=O)COc1ccc(Br)cc1`, for which the “% Inhibition” value came to 7%.
As to `CCn1cc(C(=O)N(C2CCCCC2)C2CCCCC2)c(C)n1`, the “% Inhibition” value is -13%.
The figure for `O=C(Nc1ccc(N2CCC(Cc3ccccc3)CC2)cc1C(=O)O)c1ccc(F)cc1` is -18%.
The figure for `COc1nccc(NC(=O)c2ccccc2Cl)n1` is -20%; for `COc1ccccc1CN1COc2cc3c(cc2C1)OCO3` it is 52%.
The figure for `COc1ccc(-c2cc3c(N4CCN(C)CC4)nccn3n2)cc1OC` is 11%.
Turning to `COc1ncccc1CNC(=O)[C@@H]1CCN(c2cc(C)cc(C)c2)C1=O`, the “% Inhibition” value is 7%.
`COc1ccc(-c2cc3n(n2)C[C@@](C)(C(=O)NCc2ccccc2OC)N(c2cccc(OC)c2)C3=O)cc1`: the “% Inhibition” value was determined as 23%.
The figure for `O=C1COc2ccc(S(=O)(=O)N[C@H]3COc4ccccc43)cc2N1` is -1%; for `CCNS(=O)(=O)c1cc(C)ccc1C` it is 8%.
The same measure for `OC1CCCC1N1CCC(c2ccccc2)CC1` (stereo not drawn): 0%.
The same measure for `CCCn1cc2c(C(=O)Nc3ccc(Br)cc3F)cc(=O)[nH]c2n1`: -13%; for `COc1ccc(NC(=O)C2C3NC(=O)N(c4ccccc4)C2(C)Oc2ccc(Cl)cc23)cc1` (stereo not drawn): -13%; for `CC(C)c1cc(C(=O)N2CC3CC4CC3C2C4O)n[nH]1` (stereo not drawn): 13%.
Take `CC1(C)CC(=O)C2(Cc3ccccc3N3CCN(Cc4ccccc4)C[C@H]32)C(=O)C1`: the “% Inhibition” value is given as 12%.
`COc1ccc2c(c1)/C(=C1/SC(C(C)=O)=C(c3ccccc3)S1)C(=S)C(C)(C)N2C(=O)Nc1ccc(Cl)c(Cl)c1`: the “% Inhibition” value is reported as -18%.
The same measure for `Cc1ccnc(-c2ccc(NC(=O)[C@@H]3CCN(c4ccc(Cl)cc4)C3=O)cc2)n1`: -22%.
The same measure for `COCCNc1cncc(Br)c1`: -7%; for `COc1cccc(C2=Nc3cccnc3N(CC(=O)Nc3ccc(C)c(Cl)c3)C(=O)C2)c1`: -3%; for `CC(C)Cn1nc2ccc(S(=O)(=O)N3CCOCC3)cn2c1=O`: 10%.
The same measure for `CN(Cc1cc(C(F)(F)F)ccc1Cl)[C@H]1CCc2nn(C)c(=O)n2CC1`: -2%; for `O=C(Cc1ccccc1)Nc1cccc2c1C(=O)N(c1ccccc1)C2=O`: -4%.
On to `O=C1CCCN1c1ccc(-c2csc(C3CC3)n2)cc1`, for which the “% Inhibition” value is reported as -12%.
The same measure for `Cc1c(N=C2NC3(CCCCC3)Cc3ccccc32)c(=O)n(C)n1-c1ccccc1`: 7%.
The figure for `Cc1cccc2sc(N3CCC[C@H](CNS(N)(=O)=O)C3)nc12` is 9%; for `COc1ccc(NC(=O)c2nc(Nc3ccccc3)c3ccccc3n2)cc1` it is 7%; for `O=C1NCCCOc2cccc(c2)[C@H]2c3ccc(cc3CCN2C(=O)CCN2CCOCC2)Oc2ccc(O)c1c2` it is 50%.
The same measure for `Cc1ccc(C(=O)NCc2ccc(-c3nc4ccccc4s3)cc2)cc1`: -2%; for `Cc1cc(NC(=O)Cn2cnc3nc(N(C)Cc4ccccc4)sc3c2=O)no1`: -6%.
As to `O=C(c1cn(CC2CC2)nn1)N1CCCC2(CC2)C1`, the “% Inhibition” value amounted to 5%.
The figure for `Cc1ccc(C(=O)Nc2nnc(-c3ccoc3C)o2)cc1C` is 8%; for `CC(C)c1ccc(NC(=O)CCCC(=O)O)cc1` it is 11%.
For `CCOc1ccc(CN2CC[C@H](Nc3ncccn3)[C@@H](O)C2)cc1Cl`, the “% Inhibition” value was -18%.
The figure for `C=CCNC(=O)N(Cc1ccccn1)c1ccc(Oc2cccc(C)c2C)nc1` is 3%; for `COCCN(Cc1nc(C(=O)NC(C)C)cs1)C(=O)Nc1ccc(C(C)C)cc1` it is 7%; for `CCOC(=O)N1CCc2c(nc(-c3ccc(C)cc3)n(CC(=O)Nc3ccc(C(C)C)cc3)c2=O)C1` it is -21%.
The same measure for `CN(Cc1ccc(-c2ccccc2)cc1)c1cc([C@H]2C[C@@H](N)C2)nc(N)n1`: 54%.
As for `CN(Cc1nnc2n1CCC2)C(=O)Cc1cccs1`, the “% Inhibition” value is reported as 9%.
The figure for `COc1cc(OC)c(S(=O)(=O)NC(C)C)cc1S(=O)(=O)NC(C)C` is 9%.
The figure for `CN(C)CCNC(=O)Nc1ccn(-c2ncccc2Cl)n1` is 7%.
The same measure for `O=C(COc1ccccc1)N1CC(n2cnnc2C2CC2)C1`: -17%; for `O=C1CN(CC(=O)N2CCCC2CC2CC3CCC2C3)C(=O)N1` (stereo not drawn): -13%.
Take `COc1ncnc2c1CN(C(=O)c1cc3c(s1)CC[C@H](C)C3)CC2`: the “% Inhibition” value came out at 13%.
The figure for `O=C(NCc1ccccc1)c1cnn2c3c(cnc12)CCCCCC3` is 8%; for `C#CCN(CCCc1ccccc1C)[C@H]1CCS(=O)(=O)C1` it is -23%.
The same measure for `O=C(Nc1ccc(OC2CCC2)c(F)c1)N1CC[C@H](O)C1`: 8%; for `O=C(Cc1ccccc1Cl)N1CCc2[nH]nc(C(=O)N3CCN(c4ccc(F)cc4)CC3)c2C1`: -1%.
The figure for `Cc1ccc(N(CC#N)S(=O)(=O)c2ccc3nnc(C)n3c2)cc1` is -15%.
For `CCC(CC)C(=O)Nc1cccc(Cl)c1C`, the “% Inhibition” value came out at 4%.
For `O=S1(=O)NCCCCN1Cc1ccccc1`, the “% Inhibition” value came out at 2%.
The same measure for `COC(=O)CN(CCC(F)(F)F)c1nc(C)nc(N(C)C)n1`: -10%; for `O=C([C@@H]1CCCN1c1ncc(C(F)(F)F)cc1Cl)N1Cc2ccccc2C1`: -18%.
The same measure for `COc1ccc(NC(=O)[C@@H](C)C2CCOCC2)cc1`: -5%; for `COc1c(C)cc(C(=O)[C@H]2CCCN(c3cc(N)ncn3)C2)cc1C`: 24%; for `CCOc1cccc(Cn2cc(Br)ccc2=O)n1`: 3%.
The figure for `Cc1nn(Cc2ccccc2)c(=O)n1-c1ccc(OCc2ccccc2)cc1` is -14%; for `CN(Cc1ccccc1)C(=O)C[C@H]1CCN(C(=O)c2cnccn2)C1` it is 10%; for `O=C(C[C@H]1CCN(C(=O)c2ccc(F)cc2)C1)NC1CC1` it is -8%.
For `Cn1cc(N)c(Oc2ccc3c(c2)OCO3)n1`, the “% Inhibition” value came out at 6%.
The figure for `CN1C[C@@H](C(=O)Nc2csc(N3CCCCC3)n2)CC1=O` is -2%; for `CC1CN(C)C(C)c2c1oc1ccc(N)cc21` (stereo not drawn) it is -17%; for `C[C@@H]1CN(c2ccc(N)cn2)C[C@H](C)O1` it is -12%.
For the compound `CN(C(=O)Cn1cnc2nc(N3CCC(C(=O)NC4CC4)CC3)sc2c1=O)c1ccccc1`, the “% Inhibition” value is on record as -13%.
Turning to `COc1ccc(OCC(=O)Nc2ccc(N3CCn4c(nc5cc(Cl)ccc54)C3)cc2OC)cc1`, the “% Inhibition” value is given as -5%.
As for `Cc1ccc(C(=O)NCCn2cnc3ccccc3c2=O)cn1`, the “% Inhibition” value was -7%.
The figure for `Cc1cc(C)nc(NCCC[C@H]2CCCCO2)n1` is -15%; for `CCN(CC)CCn1c2ccccc2n2cc(-c3ccc(Br)cc3)nc12` it is 47%.
The figure for `COCCOc1ccc2c(n1)CCN(C(=O)Nc1ccccc1C)C2` is 0%; for `CCOC(=O)c1ncc(Cl)c(C#N)c1Cl` it is -5%; for `CCOc1ccc(-c2ccnc3c(C(=O)NCc4ccc5c(c4)OCO5)cnn23)cc1` it is 5%.
The figure for `Cc1ccn(Cc2nc(N)nc(N(C)C)n2)c(=O)c1C#N` is 4%; for `CCCc1nn(CC(N)=O)c(CCC)c1CC` it is -9%; for `C[C@H](Oc1ccccc1)C(=O)Nc1cccc(-c2nnco2)c1` it is -18%.
Take `CC1=C[C@@H](CNCc2cccnc2)[C@H](C(C)C)C[C@H]1Cc1nc2cccnc2[nH]1`: the “% Inhibition” value worked out at 18%.
The same measure for `O=C(NCc1cccnc1Oc1ccccc1)c1cccnc1`: 10%; for `CCn1cc(C#N)c(=O)c2cc(F)c(N3CCN(Cc4ccccc4)CC3)cc21`: 78%; for `COC(=O)C1(C)CC2(C)CC(C)(C1)C(=O)N(C)C2=O` (stereo not drawn): -20%.
The figure for `O=C(CN1CCC(c2ccnn2CCO)CC1)N(Cc1ccccc1)C1CC1` is -7%; for `CC(=O)c1ccc(N2CC[S+]([O-])CC2)nc1` it is 12%.
The same measure for `Cc1nc(CNc2cnc3cc(Cl)c(Cl)cc3n2)no1`: 8%; for `O=C(Nc1ccc(N2CCn3c(nc4cc(Cl)ccc43)C2)cc1)NC1CCCCC1`: -13%.
Turning to `Cc1noc([C@H]2CCCN(C(=O)c3cc4c(s3)CCC4)C2)n1`, the “% Inhibition” value is on record as -5%.
As to `Cc1nc(-c2ccc3[nH]c(=O)[nH]c3c2)cs1`, the “% Inhibition” value is listed as 9%.
The figure for `COc1ccc(CCc2n[nH]c(NC(=O)CCc3c[nH]c4ccccc34)n2)cc1OC` is -4%.
`COc1cccc([C@H]2CC(=O)Nc3nc(N4CCCCC4)sc32)c1`: the “% Inhibition” value is 16%.
The figure for `CCOc1ccc(-c2cc3c(=O)n(CCC(=O)N4CCCC4)ccn3n2)cc1` is 7%; for `Cc1nn(C)c(C)c1CNc1ccc2c(c1)CCC(=O)N2` it is -13%.
The figure for `CCN1C(=O)COc2ccc(-c3csc(NC(=O)[C@@H]4CCCO4)n3)cc21` is 9%; for `O=S(=O)(NC1CC(c2ccc(F)c(Cl)c2)C1)C1CC1` (stereo not drawn) it is 7%.
On to `Cn1cc(CNc2ccc3c[nH]nc3c2)cn1`, for which the “% Inhibition” value was 4%.
The same measure for `Cc1ccc(-n2ccc3nc(N4CCc5ccccc5C4)ncc3c2=O)cc1C`: -13%; for `COc1ccc(C)cc1NC(=O)c1nn(-c2ccccc2)c2ccccc2c1=O`: -18%; for `Cc1ccc(OCC(=O)Nc2cc(C)nn2-c2nc3c(cnn3-c3ccc(C)c(C)c3)c(=O)[nH]2)cc1`: 57%.
